Results reported in patent US11571480B2, “Multi-ligand drug conjugates and uses thereof” (priority 2015, dated 2023).
At least one compound was matched to its structure with a doubt left. Numbered stars: 1 amine (or outer) side, 2 acyl side, 3 side chain; on linkers, the order of the positions; unused ones are H or OH. Bridge positions count the residues as written; N and C are the ends. Square brackets hold non-standard residues; d marks the D form. Peptide text beside a SMILES is read from it. I, II: the chains in the order shown. * marks the point of attachment. Hexanoyl(6-succinimido-3yl) = O=C1CC([*:1])C(=O)N1CCCCCC(=O)[*:2]; Dolaproine = CO[C@@H]([C@@H]1CCCN1)[C@@H](C)C(=O)O; Dil = CC[C@H](C)[C@H](NC)[C@@H](CC(=O)O)OC; PABC = O=C(OCc1ccc(N[*:1])cc1)[*:2]; X1 = C[C@@H](N*)[C@@H](O)c1ccccc1; Cit = NC(=O)NCCC[C@H](N)C(=O)O; NMeV = CN[C@H](C(=O)O)C(C)C

Legend:
[1] = test system: human lung cancer cell H460; assay: Cytotoxicity test of conjugate LDC10B; assay type: cell-based; details: H460, Incubation Time 30 min
Method: (§1) Culture medium: RPMI 1640 Medium, no folic acid
(§2) 1) human nasopharyngeal cancer cell line KB, melanoma cell line A375, human lung cancer cell H1299, chronic myeloid leukemia cell line K562, human lung cancer cell H460, ovarian cancer cell SKOV3, breast cancer cell line HCC1954, human gastric cancer cell N87, and human breast cancer cell SK-BR-3 were incubated at 37° C., 5% CO2 in RPMI 1640 medium containing 10% fetal bovine serum, the cells were passaged every 2-3 days.
(§3) 2) human nasopharyngeal cancer cell line KB, melanoma cell line A375, human lung cancer cell H1299, chronic myeloid leukemia cell line K562, human lung cancer cell H460, ovarian cancer cell SKOV3, breast cancer cell line HCC1954, human gastric cancer cell N87, and human breast cancer cell SK-BR-3 were plated at 1×10^3 cells per well (96-well plate) and incubated for 8-12 h at 37° C., 5% CO2.
(§4) 3) Stock solutions of LDC conjugates or controls were prepared in PBS solution. 100 μL/well of serially diluted LDC conjugates or controls was added to the test cells in the plates and incubated for 15-30 min at 37° C., 5% CO2. The culture medium in the wells was then removed by aspiration and the test cells were incubated in fresh culture medium without conjugates (150 μL/well) for 2-3 days at 37° C., 5% CO2.
(§5) 4) CellTiter 96® Aqueous One Solution Cell Proliferation Assay (Promega) was added to each well to measure the amount of […] cells, and each plate was incubated in an incubator for 1 h at 37° C., 5% CO2.
(§6) 5) Each plate was read at 490 nm on a microplate reader, and the cell survivals were compared for test cells with or without the treatment of LDC conjugates. The LDC drug concentrations that are required for 50% cell death (IC50 values) were determined.

[2] = test system: human breast cancer cell SK-BR-3; assay: Cytotoxicity test of conjugate LDC10B; assay type: cell-based; details: SK-BR-3, Incubation Time 30 min
Method: as §1, §2, §3, §4, §5, §6

melanoma cell line A375 [3] = assay: Cytotoxicity test of conjugate LDC10B; assay type: cell-based; details: A375, Incubation Time 15 min
Method: as §1, §2, §3, §4, §5, §6

[4] = test system: human lung cancer cell H1299; assay: Cytotoxicity test of conjugate LDC10B; assay type: cell-based; details: H1299, Incubation Time 30 min
Method: as §1, §2, §3, §4, §5, §6

[5] = test system: chronic myeloid leukemia cell line K562; assay: Cytotoxicity test of conjugate LDC10B; assay type: cell-based; details: K562, Incubation Time 30 min
Method: as §1, §2, §3, §4, §5, §6

[6] = test system: human nasopharyngeal cancer cell line KB; assay: Cytotoxicity test of conjugate LDC10B; assay type: cell-based; details: Incubation Time 15 min
Method: as §1, §2, §3, §4, §5, §6

[7] = test system: human gastric cancer cell N87; assay: Cytotoxicity test of conjugate LDC10B; assay type: cell-based; details: N87, Incubation Time 30 min
Method: as §1, §2, §3, §4, §5, §6

[8] = test system: human lung cancer cell H460; assay: Cytotoxicity test of conjugate LDC10H; assay type: cell-based; details: H460, incubated 15-30 min, then 2-3 days
Method: as §1
(§7) 1) human lung cancer cell H1299, ovarian cancer cell SKOV3, breast cancer cell line HCC1954, and human lung cancer cell H460 were incubated at 37° C., 5% CO2 in RPMI 1640 medium containing 10% fetal bovine serum, the cells were passaged every 2-3 days.
(§8) 2) human lung cancer cell H1299, ovarian cancer cell SKOV3, breast cancer cell line HCC1954, and human lung cancer cell H460 were plated at 1×10^3 cells per well (96-well plate) and incubated for 8-12 h at 37° C., 5% CO2.
as §4, with “control” for “controls”, “the” for “the test”, “plate” for “plates”
(§9) 4) CellTiter 96® Aqueous One Solution Cell Proliferation Assay (Promega) was added to each well to measure the amount of […] cells, and the plate was incubated in an incubator for 1 h at 37° C., 5% CO2.
(§10) 5) the plate was read at 490 nm on a microplate reader, and the cell survivals were compared for cells with or without the treatment of LDC conjugates. The LDC drug concentrations that are required for 50% cell death (IC50 values) were determined.

[9] = test system: human lung cancer cell H1299; assay: Cytotoxicity test of conjugate LDC10H; assay type: cell-based; details: H1299, incubated 15-30 min, then 2-3 days
Method: as §1, §7, §8
as §4, with “control” for “controls”, “the” for “the test”, “plate” for “plates”
as §9, §10

[10] = test system: ovarian cancer cell SKOV3; assay: Cytotoxicity test of conjugate LDC10H; assay type: cell-based, human; details: SKOV3, incubated 15-30 min, then 2-3 days
Method: as §1, §7, §8
as §4, with “control” for “controls”, “the” for “the test”, “plate” for “plates”
as §9, §10

[11] = test system: breast cancer cell line HCC1954; assay: Cytotoxicity test of conjugate LDC10H; assay type: cell-based, human; details: HCC1954, incubated 15-30 min, then 2-3 days
Method: as §1, §7, §8
as §4, with “control” for “controls”, “the” for “the test”, “plate” for “plates”
as §9, §10

[12] = test system: human lung cancer cell H460; assay: Cytotoxicity test of conjugate LDC1013; assay type: cell-based; details: H460, incubated 15-30 min, then 2-3 days
Method: as §1
(§11) 1) human nasopharyngeal cancer cell line KB, melanoma cell line A375, and human lung cancer cell H460 were incubated at 37° C., 5% CO2 in RPMI 1640 medium containing 10% fetal bovine serum, the cells were passaged every 2-3 days.
(§12) 2) human nasopharyngeal cancer cell line KB, melanoma cell line A375, and human lung cancer cell H460 were plated at 1×10^3 cells per well (96-well plate) and incubated for 8-12 h at 37° C., 5% CO2.
as §4, with “control” for “controls”, “the” for “the test”, “plate” for “plates”
as §9, §10

melanoma cell line A375 [13] = assay: Cytotoxicity test of conjugate LDC1013; assay type: cell-based; details: A375, incubated 15-30 min, then 2-3 days
Method: as §1, §11, §12
as §4, with “control” for “controls”, “the” for “the test”, “plate” for “plates”
as §9, §10

[14] = test system: human nasopharyngeal cancer cell line KB; assay: Cytotoxicity test of conjugate LDC1013; assay type: cell-based; details: incubated 15-30 min, then 2-3 days
Method: as §1, §11, §12
as §4, with “control” for “controls”, “the” for “the test”, “plate” for “plates”
as §9, §10

[15] = test system: ovarian cancer cell SKOV3; assay: Cytotoxicity test of conjugate LDC10B; assay type: cell-based, human; details: SKOV3, Incubation Time 30 min
Method: as §1, §2, §3
(§13) 3) Stock solutions of LDC conjugates or controls were prepared in PBS solution. 100 μL/well of serially diluted LDC conjugates or controls was added to the test cells in the plates and incubated for 15-30 min at 37° C., 5% CO2. […]
(§14) 5) Each plate was read at 490 nm on a microplate reader, and the cell survivals were compared for test cells with or without the treatment of LDC conjugates. […]

[16] = test system: breast cancer cell line HCC1954; assay: Cytotoxicity test of conjugate LDC10B; assay type: cell-based, human; details: HCC1954, Incubation Time 30 min
Method: as §1, §2, §3, §13, §14

[17] = test system: human endometrial cancer cell HEC-1A; assay: Cytotoxicity test of conjugate LDC13B; assay type: cell-based; details: incubated 15-30 min, then 2-3 days
Method: as §1
(§15) 1) human nasopharyngeal cancer cell line KB, human colon carcinoma HCT-116, human prostatic cancer cell PC-3, human gastric cancer cell line GTL-16, human endometrial cancer cell HEC-1A, and human gastric cancer cell N87 were incubated at 37° C., 5% CO2 in RPMI 1640 medium containing 10% fetal bovine serum, the cells were passaged every 2-3 days.
(§16) 2) human nasopharyngeal cancer cell line KB, human colon carcinoma HCT-116, human prostatic cancer cell PC-3, human gastric cancer cell line GTL-16, human endometrial cancer cell HEC-1A, and human gastric cancer cell N87 were plated at 1×10^3 cells per well (96-well plate) and incubated for 8-12 h at 37° C., 5% CO2.
as §4, with “control” for “controls”, “the” for “the test”, “plate” for “plates”
as §9, §10

[18] = test system: human gastric cancer cell line GTL-16; assay: Cytotoxicity test of conjugate LDC13B; assay type: cell-based; details: GTL-16, incubated 15-30 min, then 2-3 days
Method: as §1, §15, §16
as §4, with “control” for “controls”, “the” for “the test”, “plate” for “plates”
as §9, §10

[19] = test system: human nasopharyngeal cancer cell line KB; assay: Cytotoxicity test of conjugate LDC13B; assay type: cell-based; details: incubated 15-30 min, then 2-3 days
Method: as §1, §15, §16
as §4, with “control” for “controls”, “the” for “the test”, “plate” for “plates”
as §9, §10

[20] = test system: human gastric cancer cell N87; assay: Cytotoxicity test of conjugate LDC13B; assay type: cell-based; details: N87, incubated 15-30 min, then 2-3 days
Method: as §1, §15, §16
as §4, with “control” for “controls”, “the” for “the test”, “plate” for “plates”
as §9, §10

[21] = test system: human prostatic cancer cell PC-3; assay: Cytotoxicity test of conjugate LDC13B; assay type: cell-based; details: PC-3, incubated 15-30 min, then 2-3 days
Method: as §1, §15, §16
as §4, with “control” for “controls”, “the” for “the test”, “plate” for “plates”
as §9, §10

[22] = test system: human colon carcinoma HCT-116; assay: Cytotoxicity test of conjugate LDC13B; assay type: cell-based; details: HCT-116, incubated 15-30 min, then 2-3 days
Method: as §1, §15, §16
as §4, with “control” for “controls”, “the” for “the test”, “plate” for “plates”
as §9, §10

CC[C@H](C)[C@@H]([C@@H](CC(=O)N1CCC[C@H]1[C@H](OC)[C@@H](C)C(=O)N[C@H](C)[C@@H](O)c1ccccc1)OC)N(C)C(=O)[C@@H](NC(=O)[C@H](C(C)C)N(C)C(=O)OCc1ccc(NC(=O)[C@H](CCCNC(N)=O)NC(=O)[C@@H](NC(=O)CCCCCN2C(=O)CC(SC[C@H](N)C(=O)N[C@@H](CCCCN)C(=O)N[C@@H](CCC(=O)O)C(=O)N[C@@H](Cc3ccccc3)C(=O)N[C@@H](CC(C)C)C(=O)N[C@@H](Cc3c[nH]cn3)C(=O)N3CCC[C@H]3C(=O)N[C@@H](CO)C(=O)N[C@@H](CCCCN)C(=O)N[C@H](C(=O)N[C@@H](CC(=O)O)C(=O)N[C@@H](CC(C)C)C(=O)N3CCC[C@H]3C(=O)N[C@@H](CCCNC(=N)N)C(=O)O)C(C)C)C2=O)C(C)C)cc1)C(C)C (stereo partly drawn) [LDC10A, P10-MC-Val-Cit-PAB-MMAE] (I: H-CKEFLHPSKVDLPR-OH / II: V[Cit][PABC][NMeV]V[Dil][Dolaproine]-X1; linker I:1-II:N via Hexanoyl(6-succinimido-3yl))
IC50 [1]: 483 nM
IC50 [2]: 109 nM
IC50 (melanoma cell line A375 [3]): 10000 nM
IC50 [4]: 509 nM
IC50 [5]: 111 nM
IC50 [6]: 8500 nM
IC50 [7]: 517 nM
IC50 [8]: 724 nM
IC50 [9]: 788 nM
IC50 [10]: 641 nM
IC50 [11]: 418 nM
IC50 [12]: 13900 nM
IC50 (melanoma cell line A375 [13]): 39400 nM
IC50 [14]: 5800 nM
IC50 [15]: 125 nM
IC50 [16]: 106 nM

CC[C@H](C)[C@@H]([C@@H](CC(=O)N1CCC[C@H]1[C@H](OC)[C@@H](C)C(=O)N[C@H](C)[C@@H](O)c1ccccc1)OC)N(C)C(=O)[C@@H](NC(=O)[C@H](C(C)C)N(C)C(=O)OCc1ccc(NC(=O)[C@H](CCCNC(N)=O)NC(=O)[C@@H](NC(=O)CCCCCN2C(=O)CC(SC[C@H](NC(=O)CC[C@H](NC(=O)c3ccc(NCc4cnc5[nH]c(N)nc(=O)c5n4)cc3)C(=O)O)C(=O)NCCCC[C@@H](NC(=O)[C@H](Cc3ccc(O)cc3)NC(=O)[C@H](CO)NC(=O)[C@H](Cc3c[nH]c4ccccc34)NC(=O)[C@H](Cc3c[nH]cn3)NC(=O)[C@@H]3CCC(=O)N3)C(=O)N[C@@H](CC(C)C)C(=O)N[C@@H](CCCNC(=N)N)C(=O)N3CCC[C@H]3C(=O)NCC(N)=O)C2=O)C(C)C)cc1)C(C)C (stereo partly shown) [LDC13B]
IC50 [17]: 940 nM
IC50 [18]: 755 nM
IC50 [19]: 25.7 nM
IC50 [20]: 326 nM
IC50 [21]: 1180 nM
IC50 [22]: 1070 nM
